# Source: PubChem BioAssay AID894 (National Center for Advancing Translational Sciences (NCATS), 2007)
# Out of some 150,000 compounds screened, about 6,500 (4.3%) were called active. Inconclusive results, whose numbers are uncertain, are shown with a selection of clear calls. Calls follow the shape of the dose curve; as a rule, active = well fitted inhibition curve with a large enough effect (not every such curve was filed as active); inconclusive = small, poorly fitted or top-dose-only effect, or another doubt; inactive = no such curve, though single readings can be large or run the other way. No potency is given beside an inconclusive call; the fits are too rough.
# Target: 15-hydroxyprostaglandin dehydrogenase [NAD(+)] (Homo sapiens) (UniProt P15428)
# Chain of UniProt P15428 (P15428 whole entry, looked up): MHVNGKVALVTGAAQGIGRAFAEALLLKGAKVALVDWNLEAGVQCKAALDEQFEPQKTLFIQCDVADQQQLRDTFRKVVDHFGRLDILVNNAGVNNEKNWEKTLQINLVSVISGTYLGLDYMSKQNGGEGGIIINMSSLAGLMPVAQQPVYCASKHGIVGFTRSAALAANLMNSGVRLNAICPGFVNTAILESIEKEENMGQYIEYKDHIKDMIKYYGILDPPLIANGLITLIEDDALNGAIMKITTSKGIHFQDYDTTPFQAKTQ
# Assay: qHTS Assay for Inhibitors of HPGD (15-Hydroxyprostaglandin Dehydrogenase)
# Conditions: purified HPGD, NADH fluorescence kinetic, PGE2 substrate; activity change, negative = inhibition: stronger effect = lower value
# Outline: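 20 nM HPGD preincubated 15 min at room temperature with compound in 50 mM Tris-HCl pH 8, 0.01% Tween 20. Started with 1 mM NAD+ and 30 uM prostaglandin E2; NADH fluorescence (360/450 nm) read 5 times over 30-s intervals, last minus first.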
# % is scaled to controls: 0 for no effect and ±100 for the full control effect; potency is read from the fitted curve at half-maximal effect; tags tell the direction and shape of the fitted curve.
SMILES,Potency,"activity change, negative = inhibition"
COc1ccccc1-n1c(CCn2nc(C)c(Br)c2C)n[nH]c1=S,"inconclusive [inhibitor, single point]",–
Cc1nn(-c2ccccc2)c2sc(C(=O)N3CCCCC3)cc12,active: 3.98 µM,–
COC(=O)c1c(-c2ccc(C(C)(C)C)cc2)csc1NC(=O)C1C2CCC(O2)C1C(=O)O (stereo not given),active: 3.16 µM,–
c1cc2c(cc1-c1cnc3n1CCC3)OCCO2,"inconclusive [inhibitor, partial curve]",–
Cc1ccc(-n2c(C)cc(C3N=C(N)Nc4nc5ccccc5n43)c2C)c(C)c1 (stereo not given),–,inactive: -6.34%
CC(=O)NN1C(=O)c2ccccc2NC1c1ccccn1 (stereo not given),"inconclusive [inhibitor, partial curve]",–
Cc1ccc(CNC(=O)c2ccc(Br)o2)cc1,active: 3.16 µM,–
CCOC(=O)CSc1nc2ccccc2n1CC(=O)NC(C)(C)C,–,inactive: -4.32%
O=C(NCc1ccccc1)c1ccc(Oc2ccc(C(=O)NCc3ccccc3)cc2)cc1,active: 12.6 µM,–
COc1cc(C(=O)Nc2nc3ccccc3s2)ccc1OCc1c(C)noc1C,"inconclusive [inhibitor, partial curve, poor fit]",–
COc1ccc(NS(=O)(=O)c2coc(C(N)=O)c2)cc1Cl,–,inactive: -3.9%
Cn1c(=O)c(C(=O)CN2CCCc3ccccc32)c(N)n(Cc2ccccc2)c1=O,"inconclusive [inhibitor, partial curve]",–
O=C(Oc1ccc2c(c1)OCO2)c1cc2c(s1)CCC2,active: 22.4 µM,–
COc1cccc(-c2cc(C(=O)Nc3cnn(Cc4ccc(F)cc4)c3)no2)c1,"inconclusive [inhibitor, single point]",–
CCN(CC)S(=O)(=O)c1ccc(C(=O)Oc2ccc3c(c2)OCO3)cc1,"inconclusive [inhibitor, partial curve]",–
S=c1nc(C2CC2)[nH]c2ccccc12,active: 15.8 µM,–
COc1ccccc1-c1nc(C#N)c(N2CCN(c3cccc(Cl)c3)CC2)o1,"inconclusive [inhibitor, partial curve]",–
N#Cc1c(NC(=O)CSc2ncnc3sccc23)oc(-c2ccco2)c1-c1ccco1,"inconclusive [inhibitor, partial curve]",–
CCSc1nc2c(c(=O)n1Cc1ccccc1)SC(C)C2 (stereo not given),–,inactive: -17.3%
CC1=C(C(=O)Nc2ccccc2F)C(c2ccsc2)C2=C(CC(C)(C)CC2=O)N1 (stereo not given),"inconclusive [inhibitor, single point]",–
CCOC(=O)N1CCC(Nc2c(Nc3cccc(CC)c3)c(=O)c2=O)CC1,"inconclusive [inhibitor, partial curve]",–
COc1ccc(N2CCN(c3ccc(NC(=O)C4CCCCC4)cc3C#N)CC2)cc1,"inconclusive [inhibitor, single point]",–
COc1ccc2cc(C(=O)N3CCCCCC3)sc(=O)c2c1OC,active: 0.126 µM,–
Cc1cc(C)c([N+](=O)[O-])cc1-c1ccc(/C=N/c2c(-c3ccco3)nc3ccccn23)o1,"inconclusive [inhibitor, single point]",–

SMILES,Potency,"activity change, negative = inhibition"
CCOC(=O)N1CCN(CCC(=O)Nc2ccc(OC)cc2OC)CC1,"inconclusive [inhibitor, single point]",–
COc1ccc2c(COC(=O)CNC(=O)C34CC5CC(CC(C5)C3)C4)cc(=O)oc2c1,"inconclusive [inhibitor, partial curve]",–
O=C(NN=C1CCCCCC1)c1c[nH]c2ccccc12,–,inactive: -5.72%
O=C(COC(=O)c1ccccc1C(=O)N1CCN(c2ccccc2)CC1)Nc1ccc(F)cc1,–,inactive: -3.49%
CCOC(=O)c1nnn(CC(=O)N2N=C(c3ccc(Cl)cc3)CC2c2ccc(OC)cc2)c1C(=O)OCC (stereo not given),"inconclusive [inhibitor, partial curve]",–
COc1ccc(C(C)=O)c(OC(=O)c2ccco2)c1,"inconclusive [inhibitor, single point]",–
COc1ccc(/C=N/Nc2snc(SC)c2C#N)cc1OC,"inconclusive [inhibitor, partial curve]",–
Cc1ccsc1C1C2=C(CC(C)(C)CC2=O)Nc2ncnn21 (stereo not given),"inconclusive [inhibitor, partial curve]",–
Fc1ccc(N2CCN(Cc3nnc(-c4ccccc4)o3)CC2)cc1,–,inactive: -15%
O=C(c1ccc(Cl)cc1Cl)N1CCC(c2nc3c(nnn3Cc3ccco3)c(=O)[nH]2)CC1,active: 20 µM,–
COCCn1c(=O)c(-c2cc(F)cc(F)c2)nc2cnc(OCc3ccccc3)nc21,–,inactive: -10.5%
Nc1ccc(C(=O)O)c(O)c1 (tested in a mixture with another compound),–,inactive: -23.6%
O=C(CSc1cccs1)Nc1ccc2ccccc2c1,active: 28.2 µM,–
CCOC(=O)/C(=C\c1cccc(O)c1)c1nc2sc(C)c(C)c2c(=O)[nH]1,active: 7.94 µM,–
NC(=O)c1ccccc1NC(=S)NC(=O)c1ccc(Br)o1,"inconclusive [inhibitor, partial curve, poor fit]",–
O=C(c1ccco1)N1CCN(c2ncnc3c2cnn3-c2ccccc2)CC1,–,inactive: -7.42%
CN1CCN(CCCNC(=O)c2ccc3c(c2)N(Cc2ccccc2)CCS3)CC1,"inconclusive [inhibitor, partial curve]",–
CCOc1ccc2nc(NCCNC(=O)C(C)C)c(C)cc2c1,"inconclusive [inhibitor, partial curve]",–
O=C1c2ccccc2C(=O)c2c1ccc(C(=O)N1CCCCC1)c2NCCO,"inconclusive [inhibitor, single point]",–
CC(OC(=O)c1cc2c(ccc3ccccc32)oc1=O)c1nc2ccccc2s1 (stereo not given),"inconclusive [inhibitor, partial curve]",–
Cc1c(C(=O)Nc2cccc(Cl)c2)cn2c(nc3ccccc32)c1C#N,"inconclusive [inhibitor, single point]",–
O=C(NN=C1C2CC3CC(C2)CC1C3)c1cccs1,–,inactive: -7.85%
O=C(Nc1ccc2nn(-c3ccccc3)nc2c1)c1ccc2c(c1)OCCO2,"inconclusive [inhibitor, partial curve]",–
Cc1cc(C)n2nc(SCN3C(=O)c4ccccc4C3=O)nc2n1,active: 22.4 µM,–

SMILES,Potency,"activity change, negative = inhibition"
Cc1cc(OCc2cn3cccnc3n2)ccc1Cl,"inconclusive [inhibitor, partial curve]",–
Fc1ccc(-c2ccc(-c3nn4c(-c5ccco5)nnc4s3)o2)cc1,"inconclusive [inhibitor, single point]",–
COc1ccc2ccc3c(c2c1)N=C[C@]1(O3)N(C)c2ccccc2C1(C)C,active: 31.6 µM,–
CSc1ccccc1-c1nnc(-c2ccccc2)o1,"inconclusive [inhibitor, partial curve]",–
CC(C)(C)c1ccc(S(=O)(=O)N2CC(=O)Nc3ccccc32)cc1,–,inactive: -14.4%
CC(C)N1CCc2c(sc(NC(=S)NC(=O)c3ccccc3)c2C#N)C1,"inconclusive [inhibitor, partial curve]",–
COc1ccc(OCC(=O)Nc2ccc(N3CCOCC3)c(Cl)c2)cc1,"inconclusive [inhibitor, partial curve, poor fit]",–
CCOc1cc(S(=O)(=O)NCCc2ccccc2C)c(OCC)cc1-n1cnnn1,"inconclusive [inhibitor, partial curve]",–
COC(=O)c1ccc2c(=O)n(CCCCCC(=O)O)c(=S)[nH]c2c1,"inconclusive [inhibitor, single point]",–
NC(=S)N/N=C/c1ccc(-c2cc(Cl)cc(Cl)c2)o1,"inconclusive [inhibitor, partial curve]",–
Cn1nc(-c2ccc(Cl)cc2)c2cc(C(=O)N3CCN(c4ccccn4)CC3)sc21,"inconclusive [inhibitor, single point]",–
COc1ccc(Cn2nnc3c(=O)[nH]c(C(=O)NCCc4ccc(F)cc4)nc32)cc1OC,active: 3.16 µM,–
O=C(c1cccc(F)c1)N1CCCN(C(=O)c2cccc(F)c2)CC1,–,inactive: -0.312%
CCOc1ccc(OCC)c(NC(=O)C2CCN(c3ncccn3)CC2)c1,–,inactive: -5.27%
O=C(Nc1ccccc1)Nc1nnc(CSCc2ccccc2Cl)s1,–,inactive: -3.03%
CC(C)Cc1nnc(NC(=O)Cc2ccccc2[N+](=O)[O-])s1,active: 31.6 µM,–
COCC(=O)Nc1c(C(=O)Nc2cccc(OC)c2)oc2ccccc12,"inconclusive [inhibitor, partial curve]",–
c1ccc(-c2nc(Sc3ncnc4c3cnn4-c3ccccc3)n[nH]2)cc1,"inconclusive [inhibitor, partial curve]",–
COc1ccc2c(c1)-c1nc(NC(=O)c3cccs3)sc1CC2,"inconclusive [inhibitor, partial curve]",–
CCN(CC)CCn1c(-c2ccccc2)nc2c(NCc3ccccc3)nc(C)nc21,"inconclusive [inhibitor, partial curve]",–
O=C(CSc1n[nH]c(-c2ccc(S(=O)(=O)N3CCCCC3)cc2)n1)Nc1nccs1,"inconclusive [inhibitor, partial curve]",–
Cc1sc2nc(SCC(=O)N3CCOCC3)[nH]c(=O)c2c1C,active: 15.8 µM,–
